According to PubChem BioAssay AID504333 (National Center for Advancing Translational Sciences (NCATS), 2011):
Among all 360,000 compounds or so, about 16,000 (4.4%) were called active. The inconclusive results got no clear call from the source; some entries with a clear call stand among them for comparison. Calls come from the whole dose curve; as a rule, active = well fitted inhibition curve with a large enough effect; inconclusive = small, poorly fitted or top-dose-only effect; inactive = no such curve, though single readings can be large or run the other way. Potencies beside an inconclusive call are fits to weak or partial responses and may not hold up.

These compounds were tested against Bromodomain adjacent to zinc finger domain protein 2B (Homo sapiens) (UniProt Q9UIF8) (assay: qHTS Assay for Inhibitors of BAZ2B). Settings: AlphaScreen BAZ2B-H3K14Ac peptide displacement; activity change, negative = inhibition: at 114 µM (top of the series).
UniProt Q9UIF8, sequence (Q9UIF8 whole entry, looked up, the tested form may be a part): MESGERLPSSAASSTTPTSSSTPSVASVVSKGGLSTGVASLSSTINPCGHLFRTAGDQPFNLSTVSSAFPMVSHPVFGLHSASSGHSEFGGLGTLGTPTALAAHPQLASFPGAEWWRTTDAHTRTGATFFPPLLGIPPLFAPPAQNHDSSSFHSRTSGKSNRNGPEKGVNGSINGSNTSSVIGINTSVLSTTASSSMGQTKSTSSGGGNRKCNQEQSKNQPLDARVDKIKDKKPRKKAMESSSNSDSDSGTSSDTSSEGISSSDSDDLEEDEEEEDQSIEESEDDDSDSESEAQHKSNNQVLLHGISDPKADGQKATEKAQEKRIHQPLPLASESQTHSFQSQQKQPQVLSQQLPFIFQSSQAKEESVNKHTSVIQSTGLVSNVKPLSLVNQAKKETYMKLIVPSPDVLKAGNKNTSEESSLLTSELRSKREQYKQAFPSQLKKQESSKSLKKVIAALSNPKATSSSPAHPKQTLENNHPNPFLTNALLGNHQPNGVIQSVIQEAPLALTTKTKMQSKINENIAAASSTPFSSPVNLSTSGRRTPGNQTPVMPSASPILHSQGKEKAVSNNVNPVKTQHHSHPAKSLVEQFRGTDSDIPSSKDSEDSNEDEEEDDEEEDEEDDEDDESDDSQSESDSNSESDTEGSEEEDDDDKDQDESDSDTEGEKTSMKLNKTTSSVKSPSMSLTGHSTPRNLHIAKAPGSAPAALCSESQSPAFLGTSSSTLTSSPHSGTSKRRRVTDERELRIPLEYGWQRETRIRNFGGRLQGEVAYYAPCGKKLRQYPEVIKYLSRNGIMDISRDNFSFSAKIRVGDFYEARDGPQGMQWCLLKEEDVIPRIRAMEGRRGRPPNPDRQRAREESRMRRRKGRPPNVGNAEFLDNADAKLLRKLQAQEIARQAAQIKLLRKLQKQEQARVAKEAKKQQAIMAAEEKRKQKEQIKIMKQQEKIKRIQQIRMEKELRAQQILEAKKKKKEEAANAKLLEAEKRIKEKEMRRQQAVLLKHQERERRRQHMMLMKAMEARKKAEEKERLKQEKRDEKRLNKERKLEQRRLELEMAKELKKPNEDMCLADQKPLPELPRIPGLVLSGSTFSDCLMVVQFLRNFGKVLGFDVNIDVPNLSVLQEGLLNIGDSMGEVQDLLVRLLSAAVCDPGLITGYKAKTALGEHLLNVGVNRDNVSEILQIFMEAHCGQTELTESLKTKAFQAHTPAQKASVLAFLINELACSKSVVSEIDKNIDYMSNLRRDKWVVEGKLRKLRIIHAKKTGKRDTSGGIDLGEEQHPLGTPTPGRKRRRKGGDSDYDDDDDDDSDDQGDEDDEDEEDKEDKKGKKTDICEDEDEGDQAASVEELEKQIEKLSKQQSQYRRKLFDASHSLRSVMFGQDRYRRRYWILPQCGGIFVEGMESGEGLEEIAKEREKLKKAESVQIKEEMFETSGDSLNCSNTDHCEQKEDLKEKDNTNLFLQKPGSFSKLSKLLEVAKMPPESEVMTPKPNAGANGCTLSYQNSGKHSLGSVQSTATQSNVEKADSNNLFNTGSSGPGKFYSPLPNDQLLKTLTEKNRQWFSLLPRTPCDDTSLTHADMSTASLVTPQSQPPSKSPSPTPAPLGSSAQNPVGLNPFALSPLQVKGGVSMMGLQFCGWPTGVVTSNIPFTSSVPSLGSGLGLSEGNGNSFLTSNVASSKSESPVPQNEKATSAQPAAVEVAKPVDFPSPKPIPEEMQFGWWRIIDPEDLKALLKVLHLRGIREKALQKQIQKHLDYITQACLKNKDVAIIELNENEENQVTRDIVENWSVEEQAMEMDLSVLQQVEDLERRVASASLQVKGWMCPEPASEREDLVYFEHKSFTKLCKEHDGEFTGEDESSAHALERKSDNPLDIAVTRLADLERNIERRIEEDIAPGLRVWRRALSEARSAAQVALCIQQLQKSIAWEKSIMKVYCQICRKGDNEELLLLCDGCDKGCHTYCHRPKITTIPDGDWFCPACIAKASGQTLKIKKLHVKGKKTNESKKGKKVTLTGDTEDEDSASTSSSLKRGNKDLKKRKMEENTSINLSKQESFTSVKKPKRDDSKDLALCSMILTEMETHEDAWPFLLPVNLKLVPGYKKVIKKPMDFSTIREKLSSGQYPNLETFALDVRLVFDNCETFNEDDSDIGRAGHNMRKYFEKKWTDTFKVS
Procedure, shortened: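 AlphaScreen luminescence quantifies BAZ2B engagement of H3K14Ac peptide; the protein and biotinylated peptide are both at 50 nM final, buffer PBS pH 7.4 with 0.01% Tween-20, all steps at room temperature.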
% is set by controls: 0 for no effect and ±100 for the full control effect; potency is the fitted concentration of half-maximal effect; tags give direction and shape of the fitted curve.
Note: nearly all actives have a fitted effect of over 60% in size.

SMILES | Potency | activity change, negative = inhibition
Cc1ccc(-n2nc(C)c(C(=O)NCCCN3CCN(c4ccc(F)cc4)CC3)c2-n2cccc2)cc1 | active: 39.8 µM | –
Nc1c(-c2nc(-c3cccs3)no2)nnn1-c1ccccc1Cl | inactive | –
Nc1ccc(OCc2ccco2)cc1 | inconclusive: 89.1 µM [inhibitor, single point] | –
COc1ccc(NC(=S)N2CCN(C/C=C/c3ccccc3)CC2)cc1OC | inconclusive: 35.5 µM [inhibitor, partial curve] | –
CCOC(=O)c1c(C)[nH]c(C)c1C(=O)COC(=O)c1cccc(C)c1O | inconclusive: 44.7 µM [inhibitor, partial curve] | –
COc1ccc(N2C(=O)C(Cl)=C(Nc3ccccc3OC)C2=O)cc1 | inconclusive: 31.6 µM [inhibitor, full curve] | –
O=C(O)CCc1ccc(-c2cccs2)o1 | active: 56.2 µM | –
CCC(CC)N1CCN(C(=O)c2cc(OC)c(OC)c(OC)c2)CC1 | inconclusive: 89.1 µM [inhibitor, single point] | –
C=CCSc1nnc(NC(=O)CN2C(=O)NC3(CCCC3)C2=O)s1 | inactive | –
Cc1nnc(SCc2ccccc2)c2cc3sccc3n12 | inactive | –
CN(C)c1cc2c(cc1NC(=O)c1ccccc1Cl)n(C)c(=O)n2C | active: 50.1 µM | –
C=CCN1C(=O)C(C)(C)N(C(=O)c2cccc([N+](=O)[O-])c2)c2ccccc21 | inconclusive: 89.1 µM [inhibitor, single point] | –
Fc1cccc(NC(=S)NNc2c3ccccc3nc3ccccc23)c1 | active: 7.08 µM | –
COc1ccc(N2CCN(C(=O)COC(=O)c3ccccc3OCc3ccc(F)cc3)CC2)cc1 | inconclusive: 35.5 µM [inhibitor, partial curve] | –
O=C(O)CC(O)C(=O)O (centres undefined) | inconclusive: 89.1 µM [inhibitor, single point] | –
CC(C)(C)Nc1nc(-c2ccc3c(c2)CCN3C(=O)C2CC2)cs1 | inconclusive: 44.7 µM [inhibitor, partial curve] | –
O=C(CCC(=O)c1cccs1)Nc1ccc(N2CCCCC2)cc1 | inconclusive: 44.7 µM [inhibitor, partial curve] | –
COc1ccc(OCC(=O)N2CCN(c3nnc(-c4ccccc4)c4ccccc34)CC2)cc1 | inconclusive: 70.8 µM [inhibitor, single point] | –
CCN1CCN(c2csc3ccc(C)cc3c2=O)CC1 | inconclusive: 79.4 µM [inhibitor, single point] | –
CCCCCC(=O)NC(=S)Nc1ccc(N2CCOCC2)cc1 | inconclusive: 50.1 µM [inhibitor, partial curve] | –
COc1cc(NS(=O)(=O)c2ccc(N/C=C(\C=O)c3nc4ccccc4o3)cc2)nc(OC)n1 | active: 79.4 µM | –
CCOC(=O)C1CCN(C(=O)c2cc(COc3ccc(OC)c4ccccc34)on2)CC1 | inconclusive: 25.1 µM [inhibitor, single point] | –
Cc1nc2ccccc2n1CC(=O)N/N=C\c1ccccn1 | active: 50.1 µM | –
CC(=O)NC(=S)c1c(N)n(Cc2ccccc2)c(=O)n(C)c1=O | inactive | –
CCOC(=O)c1c(C)[nH]c(C)c1S(=O)(=O)N1CCCC(C(=O)Nc2ccccc2OCC)C1 (centres undefined) | inconclusive: 79.4 µM [inhibitor, single point] | –

SMILES | Potency | activity change, negative = inhibition
CC(OCC(O)CN(C)CCOc1ccccc1)c1ccc(Cl)cc1 (centres undefined) | – | inconclusive: -60.5% [inhibitor]
Cc1cc(Cl)c2oc(C(=O)N(C)Cc3nccn3C)c(C)c2c1 | inconclusive: 39.8 µM [inhibitor, partial curve] | –
C/C=C/C(=O)OCC(=O)Nc1ccc(OC)c(OC)c1 | active: 50.1 µM | –
O=C(COC(=O)c1cc([N+](=O)[O-])ccc1N1CCOCC1)Nc1ncc(Cl)cc1Cl | active: 44.7 µM | –
COc1ccc(O)c(-c2cn[nH]c2-c2cccs2)c1 | inconclusive: 89.1 µM [inhibitor, single point] | –
O=C(CCS(=O)(=O)c1ccccc1)Nc1nc2c(s1)COc1ccccc1-2 | inactive | –
CCC(C)NC(=S)N1CCN(Cc2ccc3c(c2)OCO3)CC1 (centres undefined) | active: 50.1 µM | –
CC(=O)N1CCN(c2ccc(NCc3cccc(C)c3)cc2)CC1 | inconclusive: 56.2 µM [inhibitor, partial curve] | –
CCOc1ccc(N(CC)S(=O)(=O)N2CCCC(C(=O)Nc3ccc(OC)c(OC)c3)C2)cc1 (centres undefined) | inconclusive: 50.1 µM [inhibitor, partial curve] | –
CC(NC(=O)c1cccc(N(C)C)c1)c1ccc(-n2ccnc2)cc1 (centres undefined) | inconclusive: 50.1 µM [inhibitor, partial curve] | –
CCn1cc2nc(SCc3ccccc3Cl)n(CCc3ccccc3)c(=O)c2n1 | inactive | –
Cn1c(=O)c(C(=O)Nc2ncccn2)c(O)c2ccccc21 | inconclusive: 89.1 µM [inhibitor, single point] | –
C1=Cc2ccccc2Nc2ccccc21 | inconclusive: 79.4 µM [inhibitor, partial curve] | –
CCOC(=O)C1CCCN(C(=O)c2cccc(NC(=O)c3nsc4ccccc34)c2)C1 (centres undefined) | inconclusive: 39.8 µM [inhibitor, single point] | –
COc1ccccc1C(=O)N1CCN(CCNC(=O)C(=O)Nc2ccc(Br)c(C)c2)CC1 | inconclusive: 31.6 µM [inhibitor, full curve] | –
Cc1ccccc1/C=N\NC(=O)c1ccccc1-n1cccc1 | inconclusive: 79.4 µM [inhibitor, single point] | –
Cc1nc2ccccc2nc1N/N=C/c1ccc(O)cc1O | active: 25.1 µM | –
COc1cccc(C2/C(=C(/O)c3ccc4c(c3)CC(C)O4)C(=O)C(=O)N2c2nnc(C)s2)c1 (centres undefined) | inactive | –
Cc1nc(SCC(=O)O)c(C#N)c(-c2ccco2)c1C(=O)N(C)C | inactive | –
COC(=O)c1[nH]c(C)c(/C(O)=C2\C(=O)C(=O)N(CCN(C)C)C2c2ccc(C)o2)c1C (centres undefined) | inactive | –
COc1ccc(N2CCN(C(=O)CN3CCN(c4nc(-c5ccc(F)cc5)cs4)CC3)CC2)cc1 | active: 20 µM | –
Cc1ccc(NC(=O)COC(=O)C2CC3C=CC2C3)cc1S(=O)(=O)N1CCCCC1 (centres undefined) | inactive | –
CC(NC(=S)NNS(=O)(=O)c1ccc(C(C)(C)C)cc1)c1ccccc1 (centres undefined) | inconclusive: 31.6 µM [inhibitor, full curve] | –
O=C1Nc2ccccc2C(O)(C(=O)NCc2ccco2)N1c1ccc(Cl)c(Cl)c1 (centres undefined) | inconclusive: 89.1 µM [inhibitor, single point] | –
CC1CCN(C2=C(NS(=O)(=O)c3ccc(Cl)cc3)C(=O)c3ccccc3C2=O)CC1 | active: 4.47 µM | –

SMILES | Potency | activity change, negative = inhibition
COc1cc(C(=O)Nc2ccc3c(c2)N(C(=O)CN2CCN(C)CC2)c2ccccc2CC3)cc(OC)c1OC | inconclusive: 79.4 µM [inhibitor, single point] | –
Cc1cccc(CN(C)CCc2ccccn2)c1 | inconclusive: 89.1 µM [inhibitor, single point] | –
NNc1nc(-c2ccccc2)cc(-c2ccccc2)n1 | inconclusive: 39.8 µM [inhibitor, partial curve] | –
CCCc1nc2ccc([N+](=O)[O-])cc2[nH]1 | inactive | –
CCOc1ccc(C(C)=O)cc1N1C(=O)C2C3C=CC(O3)C2C1=O (centres undefined) | inconclusive: 89.1 µM [inhibitor, single point] | –
Cc1ccc(OCc2ccc(C(=O)NCC3CCCO3)cc2)cc1 (centres undefined) | inactive | –
COc1ccc2nc(SCC(=O)Nc3ccc(S(=O)(=O)Nc4nccc(C)n4)cc3)[nH]c2c1 | inconclusive: 100 µM [inhibitor, single point] | –
CCOc1ccc(-n2c(SC(C)C)nc3c(c2=O)SCC3)cc1 | inconclusive: 20 µM [inhibitor, full curve] | –
COc1cc(C(=O)NC(=S)Nc2ccc(N3CCCC3)cc2)cc(OC)c1OC | inconclusive: 35.5 µM [inhibitor, partial curve] | –
COc1cccc(Oc2cc(Cl)nc(N)n2)c1 | inactive | –
O=C(Nc1ncccc1O)c1ccc2c(c1)OCO2 | inconclusive: 89.1 µM [inhibitor, single point] | –
COc1cccc(CNC(=O)c2ccc3nc(N4CCCCC4)sc3c2)c1OC | inactive | –
CCOCCCNCc1c(Cl)cccc1Cl | inconclusive: 79.4 µM [inhibitor, single point] | –
N#CC(c1ccc(Cl)cc1)c1ncc(C(F)(F)F)cc1Cl (centres undefined) | inactive | –
CCN1CCN(c2oc(/C=C/c3ccc(OC)c(OC)c3)nc2C#N)CC1 | inactive | –
Fc1ccc(-n2[nH]nnc2=S)cc1N1CCCC1 | inconclusive: 89.1 µM [inhibitor, single point] | –
COc1ccc(CC(=O)N/N=C(\C)CC(=O)NCc2ccco2)cc1OC | inactive | –
COc1cccc(-c2c(C(=O)N/N=C/c3ccsc3)nnn2-c2nonc2N)c1 | inconclusive: 89.1 µM [inhibitor, single point] | –
COc1cccc(/C=C2/C(=O)NN(c3ccccc3)C2=O)c1 | inconclusive: 79.4 µM [inhibitor, single point] | –
NNc1nc2sc3c(c2c(=O)[nH]1)CCc1ccccc1-3 | inactive | –
Cc1ccc(C(=O)N2CCN(C(=O)c3ccccc3)C2c2ccc(N(C)C)cc2)cc1 (centres undefined) | inconclusive: 50.1 µM [inhibitor, partial curve] | –
COC(=O)c1c(NC(=O)CCC(=O)O)sc(Cc2ccccc2)c1C | inconclusive: 79.4 µM [inhibitor, single point] | –
Cn1cccc1/C=C1\CC(C(C)(C)C)C/C(=C\c2cccn2C)C1=O (centres undefined) | active: 28.2 µM | –
COCCN(C(=S)Nc1cccc(OC)c1)C1CCN(C(C)C)CC1 | inactive | –
